# Laboratory results taken from the supplement of paper PMC8728848.
# The list shows a part of the results.
# Legend:
# Assay in all cases: glycan array binding signal (z-score within array); higher = stronger binding
# Conditions in all cases: glycan notation: IUPAC condensed, linker removed
# [1] = target: Gal(b1-4)GlcNAc(b1-2)Man(a1-3)[Gal(b1-4)GlcNAc(b1-2)Man(a1-6)]Man(b1-4)GlcNAc(b1-4)[Fuc(a1-6)]GlcNAc
# Procedure, shortened: (§1)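 Glycan array binding is given as a within-array Z-score, which can be read as non-binding when negative. The arrays, 3228 of them, came from the Consortium for Functional Glycomics database and were retained only where the protein sequence was available. Z-scores were averaged across arrays of the same protein sequence at different concentrations or buffers and across linkers.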
# [2] = target: Gal(b1-4)GlcNAc(b1-2)Man(a1-3)[Gal(b1-4)GlcNAc(b1-2)Man(a1-6)][Gal(b1-4)GlcNAc(b1-4)]Man(b1-4)GlcNAc(b1-4)[Fuc(a1-6)]GlcNAc
# Procedure, shortened: as §1
# [3] = target: Gal(b1-4)GlcNAc(b1-2)Man(a1-3)[Gal(b1-4)GlcNAc(b1-2)Man(a1-6)][GlcNAc(b1-4)]Man(b1-4)GlcNAc(b1-4)[Fuc(a1-6)]GlcNAc
# Procedure, shortened: as §1
# [4] = target: Gal(b1-4)GlcNAc(b1-2)Man(a1-3)[GlcNAc(b1-2)Man(a1-6)]Man(b1-4)GlcNAc(b1-4)GlcNAc
# Procedure, shortened: as §1
# [5] = target: Gal(b1-4)GlcNAc(b1-2)Man(a1-3)[GlcNAc(b1-4)][Gal(b1-4)GlcNAc(b1-2)Man(a1-6)]Man(b1-4)GlcNAc(b1-4)GlcNAc
# Procedure, shortened: as §1
# [6] = target: Gal(b1-4)GlcNAc(b1-2)Man(a1-3)[Man(a1-6)]Man(b1-4)GlcNAc(b1-4)GlcNAc
# Procedure, shortened: as §1
# [7] = target: Gal(b1-4)GlcNAc(b1-2)Man(a1-6)Man(b1-4)GlcNAc(b1-4)GlcNAc
# Procedure, shortened: as §1
# [8] = target: Gal(b1-4)GlcNAc(b1-2)Man(a1-6)[GlcNAc(b1-2)Man(a1-3)]Man(b1-4)GlcNAc(b1-4)GlcNAc
# Procedure, shortened: as §1
# [9] = target: Gal(b1-4)GlcNAc(b1-2)Man(a1-6)[Man(a1-3)]Man(b1-4)GlcNAc(b1-4)GlcNAc
# Procedure, shortened: as §1
# [10] = target: Gal(b1-4)GlcNAc(b1-2)[Gal(b1-4)GlcNAc(b1-4)]Man(a1-3)[Gal(b1-4)GlcNAc(b1-2)Man(a1-6)]Man(b1-4)GlcNAc(b1-4)GlcNAc
# Procedure, shortened: as §1
# [11] = target: Gal(b1-4)GlcNAc(b1-2)[Gal(b1-4)GlcNAc(b1-4)]Man(a1-3)[Gal(b1-4)GlcNAc(b1-2)[Gal(b1-4)GlcNAc(b1-6)]Man(a1-6)]Man(b1-4)GlcNAc(b1-4)GlcNAc
# Procedure, shortened: as §1
# [12] = target: Gal(b1-4)GlcNAc(b1-2)[Gal(b1-4)GlcNAc(b1-4)]Man(a1-3)[GlcNAc(b1-4)][Gal(b1-4)GlcNAc(b1-2)Man(a1-6)]Man(b1-4)GlcNAc(b1-4)GlcNAc
# Procedure, shortened: as §1
# [13] = target: Gal(b1-4)GlcNAc(b1-2)[Gal(b1-4)GlcNAc(b1-4)]Man(a1-3)[GlcNAc(b1-4)][Gal(b1-4)GlcNAc(b1-2)[Gal(b1-4)GlcNAc(b1-6)]Man(a1-6)]Man(b1-4)GlcNAc(b1-4)GlcNAc
# Procedure, shortened: as §1
# [14] = target: Gal(b1-4)GlcNAc(b1-2)[Gal(b1-4)GlcNAc(b1-6)]Man(a1-6)[Gal(b1-4)GlcNAc(b1-2)Man(a1-3)]Man(b1-4)GlcNAc(b1-4)GlcNAc
# Procedure, shortened: as §1
# [15] = target: Gal(b1-4)GlcNAc(b1-2)[Gal(b1-4)GlcNAc(b1-6)]Man(a1-6)[Gal(b1-4)GlcNAc(b1-2)Man(a1-3)]Man(b1-4)GlcNAc(b1-4)[Fuc(a1-6)]GlcNAc
# Procedure, shortened: as §1
# [16] = target: Gal(b1-4)GlcNAc(b1-2)[Gal(b1-4)GlcNAc(b1-6)]Man(a1-6)[GlcNAc(b1-4)][Gal(b1-4)GlcNAc(b1-2)Man(a1-3)]Man(b1-4)GlcNAc(b1-4)GlcNAc
# Procedure, shortened: as §1
# [17] = target: Gal(b1-4)GlcNAc(b1-2)[Gal(b1-4)GlcNAc(b1-6)]Man(a1-6)[GlcNAc(b1-4)][Gal(b1-4)GlcNAc(b1-2)[Gal(b1-4)GlcNAc(b1-4)]Man(a1-3)]Man(b1-4)GlcNAc(b1-4)[Fuc(a1-6)]GlcNAc
# Procedure, shortened: as §1
# [18] = target: Gal(b1-4)GlcNAc(b1-3)Gal(b1-3)GalNAc
# Procedure, shortened: as §1
# [19] = target: Gal(b1-4)GlcNAc(b1-3)Gal(b1-3)GlcNAc
# Procedure, shortened: as §1
binder,measurement,setting,value
SP16663B-bot-321-25-321 (Bacteroides ovatus) (protein) DDDDEVTMNSKFYLSTKVFPVDSYEASLSVILKDNSVVVNELQPNYRFVACATERLSKDVKITADSDDNLVSAYNKANDTEYNILPAENYSFTNKTVTIENGESVSGDSIKIELLNVGSLTTEGGYLLPVTISSIEGNNLDALSSNRGVVYLKIQNIHVNVESGQPAEGTLIADRSGWTVKVAPTTRGDAKNLIDGTNSDVARDGGAEYWLTVDIGKVQTLTGIRNKCYASSYSPTAVEVFTSSDGAKWKSIGAVTISKSGTQYIKFSKAVETRYLKYYVKQGPNTVSLTEFDLYAK,glycan array binding signal (z-score),[1],-0.475
same,glycan array binding signal (z-score),[2],0.027
same,glycan array binding signal (z-score),[3],0.141
same,glycan array binding signal (z-score),[4],0.02
same,glycan array binding signal (z-score),[5],-0.471
same,glycan array binding signal (z-score),[6],-0.361
same,glycan array binding signal (z-score),[7],-0.62
same,glycan array binding signal (z-score),[8],-0.271
same,glycan array binding signal (z-score),[9],-0.259
same,glycan array binding signal (z-score),[10],-0.29
same,glycan array binding signal (z-score),[11],0.097
same,glycan array binding signal (z-score),[12],0.089
same,glycan array binding signal (z-score),[13],-0.309
same,glycan array binding signal (z-score),[14],0.426
same,glycan array binding signal (z-score),[15],0.25
same,glycan array binding signal (z-score),[16],-0.598
same,glycan array binding signal (z-score),[17],0.131
same,glycan array binding signal (z-score),[18],-0.127
same,glycan array binding signal (z-score),[19],-0.368
